In PubChem BioAssay AID1645887 (National Center for Advancing Translational Sciences (NCATS), 2021):
“And” between values parts separate entries of the source, which are not always exact repeats. Equal entries are not always repeated. The whole screen tested about 16,000 compounds, of which about 40 (0.2%) were called active. Inconclusive results (about 1%) are left out. Calls come from the whole dose curve; as a rule, active = well fitted activation curve with a large enough effect; inconclusive = small, poorly fitted or top-dose-only effect, or another doubt; inactive = no such curve, though single readings can be large or run the other way. The list shows a part of the results. Starred links: 1 amine or outer side, 2 acyl side, 3 side chain; linkers in the order of their positions; H or OH if unused. Non-standard residues stand in square brackets, D forms with d. Residues, ends and D or L forms follow the SMILES beside them. X10 = C[C@H](O)[C@@H](C(=O)[*:2])N(C(C)(C)C)[*:1]; X9 = CC(C)(C)N([C@@H](CS)C(=O)[*:2])[*:1]

Molecular target: Rap guanine nucleotide exchange factor 4 (Homo sapiens) (UniProt Q8WZA2)
Assay: Validation qHTS for agonist of cAMP-regulated guanine nucleotide exchange factor 4 (EPAC2);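 for activation: exchange makes BODIPY-GDP fluorescence drop when released from Rap1B; series mostly up to about 150 µM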
Details: EPAC2 Rap1B BODIPY-GDP exchange, fluorescence; activation: stronger effect = higher value
From the text: Principle Investigator: Xiaodong Cheng Ph.D.
The University of Texas Medical Branch, […], TX
In multi-cellular eukaryotic organisms, the effects of cAMP are transduced by two ubiquitously-expressed intracellular cAMP receptors, the classic protein kinase A/cAMP-dependent protein kinase (PKA/cAPK) and the more recently discovered exchange protein directly activated by cAMP/cAMP-regulated guanine nucleotide exchange factor (EPAC/cAMP-GEF). Both PKA and EPAC are ubiquitously expressed in all tissues, and an increase in intracellular cAMP levels will lead to the activation of both PKA and EPAC. Therefore, careful dissections of the individual role and relative contribution of EPAC and PKA within the overall cAMP signaling in various model systems are critical for further elucidating the mechanism of cAMP signaling. To date no EPAC-specific antagonists and agonist, as well as isoform-specific agonists have been reported, and developing EPAC-specific pharmacological probes to determine the physiological functions that EPAC play in the overall cAMP-mediated signaling remains a major challenge within the research field. Furthermore, identified regulators of EPAC may lead to new mechanism-based therapeutic strategies specifically targeting the EPAC / cAMP-signaling components as EPAC has been implicated to play important roles in major human pathological conditions such as diabetes, heart disease, and cancer.
This qHTS will be used to screen the Molecular Libraries Small Molecule Repository (MLSMR) as a concentration-titration series using the NCGC unique quantitative screening (qHTS) platform to find activators for EPAC1. In addition, this assay will also be used as a counterscreen for the EPAC2 qHTS. This fluorescent based assay is developed and validated for EPAC1 that measures exchange using EPAC effector Rap1 complex with BODIPY-GDP, a GDP analog with a tethered fluorophores. Activators are identified by monitoring the change in fluorescence signal as the exchanged free BODIPY-GDP has a reduced fluorescence compared to Rap1-bound BODIPY-GDP. Increase in signal (activation) is the desired outcome for the EPAC1 agonist while no activity in this assay is desired for the EPAC2 agonist counterscreen.
[1] de Rooij, J., Zwartkruis, F. J., Verheijen, M. H., Cool, R. H., Nijman, S. M., Wittinghofer, A., and Bos, J.L. (1998) Nature 396, 474-477.
Briefly, three uL of reagents (100 nM EPAC2, 250 nM RAP1B-BODIPY-GDP, 50 uM GDP) were dispensed into a 1536-well Greiner black solid-bottom medium binding assay plate. Controls and test compounds (23 nL) were transferred to the plate via a Kalypsys pin tool equipped with a 1536-pin array. The plates were centrifuged at 1,000 rpm for 15 seconds followed by 5 minute incubation at room temperature. The assay plates were read at 5 minute intervals for 30 minutes in the ViewLux plate reader using 480nm excitation and 540nm emission filters. The results were normalized to the agonist positive control of 6.5 mM cAMP.
% is set by controls: 0 for no effect and ±100 for the full control effect; potency is the fitted concentration of half-maximal effect.

UniProt Q8WZA2, sequence (Q8WZA2 whole entry, looked up): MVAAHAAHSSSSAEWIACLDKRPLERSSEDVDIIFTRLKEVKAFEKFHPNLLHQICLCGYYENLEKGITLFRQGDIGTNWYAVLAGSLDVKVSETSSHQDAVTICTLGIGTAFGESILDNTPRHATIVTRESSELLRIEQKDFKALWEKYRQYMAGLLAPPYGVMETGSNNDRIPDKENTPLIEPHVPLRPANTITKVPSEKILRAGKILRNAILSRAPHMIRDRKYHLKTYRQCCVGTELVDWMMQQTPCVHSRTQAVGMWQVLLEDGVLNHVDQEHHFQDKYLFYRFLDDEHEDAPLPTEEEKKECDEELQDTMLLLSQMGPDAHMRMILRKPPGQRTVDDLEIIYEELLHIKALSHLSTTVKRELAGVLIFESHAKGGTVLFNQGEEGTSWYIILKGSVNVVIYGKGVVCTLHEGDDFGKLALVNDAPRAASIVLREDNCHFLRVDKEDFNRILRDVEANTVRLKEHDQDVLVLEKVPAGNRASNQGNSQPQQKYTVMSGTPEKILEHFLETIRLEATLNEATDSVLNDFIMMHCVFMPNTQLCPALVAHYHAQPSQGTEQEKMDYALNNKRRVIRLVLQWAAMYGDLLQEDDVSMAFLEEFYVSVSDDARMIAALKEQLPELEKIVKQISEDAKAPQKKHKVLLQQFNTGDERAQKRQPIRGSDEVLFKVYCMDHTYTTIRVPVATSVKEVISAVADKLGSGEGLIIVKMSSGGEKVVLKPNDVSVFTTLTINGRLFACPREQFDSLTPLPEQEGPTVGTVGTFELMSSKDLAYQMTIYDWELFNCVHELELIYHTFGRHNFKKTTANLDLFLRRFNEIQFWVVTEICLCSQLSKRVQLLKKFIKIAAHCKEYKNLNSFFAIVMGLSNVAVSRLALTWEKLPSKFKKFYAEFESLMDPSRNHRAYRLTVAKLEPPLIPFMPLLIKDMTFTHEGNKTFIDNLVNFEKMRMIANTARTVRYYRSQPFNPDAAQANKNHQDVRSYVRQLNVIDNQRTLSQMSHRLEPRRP

SMILES | activation | Potency
O=[N+]([O-])c1c(Cl)c(Cl)cc(Cl)c1Cl | inactive: -9.47% | 
CCCCCCCCCCCCCCCC(=O)OC[C@H](COP(=O)([O-])OCC[N+](C)(C)C)OC(C)=O | inactive: -16.1% | 
Cc1ccc(N=CN(C)C=Nc2ccc(C)cc2C)c(C)c1 | inactive: -24% | 
CC(C)C[C@H](NC(=O)[C@H](Cc1ccccc1)NC(=O)CNC(=O)[C@H](CS)N(C(=O)[C@@H](N)Cc1ccc(O)cc1)C(C)(C)C)C(=O)N([C@H](C(=O)O)[C@H](C)O)C(C)(C)C (H-Y[X9]GFL[X10]-OH) | inactive: 0.782% | 
C=CCN1CC[C@]23c4c5ccc(O)c4O[C@H]2/C(=N/NC(=O)c2ccccc2)CC[C@@]3(O)[C@H]1C5 | inactive: -2.11% | 
CC(C)CC(N(C)C)C1(c2ccc(Cl)cc2)CCC1 (configuration not stated) | inactive: 6.35% | 
CNC1(c2ccccc2Cl)CCCCC1=O (configuration not stated) | inactive: -2.74% | 
N#CN | inactive: -18.8% | 
CNC(C)C(O)c1ccc(O)cc1 (configuration not stated) | inactive: 8.62% and inactive: -1.8% | 
CNC(=O)O/N=C(/C)SC | inactive: -11.5% | 
COc1ccc(CC2c3cc(OC)c(OC)cc3CCN2C)cc1OC (configuration not stated) | inactive: -3.53% | 
COc1cc2c(cc1OC)[C@@H]1C(=O)c3ccc4c(c3OC1CO2)CC(C(C)C)O4 (some centres not stated) | inactive: 13.7% | 
N#C/C(=C\c1cccc(O)c1)C(=O)O | inactive: -5.5% | 
COP(=S)(OC)Oc1ccc(SC)c(C)c1 | inactive: 1.35% and inactive: -16.1% | 
CN(CCc1ccc(Cl)c(Cl)c1)[C@H]1CCCC[C@H]1N1CCCC1 | inactive: -15% | 
O=c1[nH]c2ccccc2n1CCCN1CCC(n2c(=O)[nH]c3cc(Cl)ccc32)CC1 | inactive: 2.32% [middle of 4 runs] | 
C[N+](C)(C)CC(=O)O | inactive: -15.5% | 
c1ccc(C2(N3CCCC3)CCCCC2)cc1 | inactive: -6.34% | 
O=C(O)COc1nc(Cl)c(Cl)cc1Cl | inactive: -4.93% | 
CC1CCCC(=O)CCC/C=C/c2cc(O)cc(O)c2C(=O)O1 (configuration not stated) | inactive: 6.7% | 
COC1C(O)C(OC2CC[C@]3(C=O)C4C(OC(C)=O)C[C@@]5(C)C(C6=CC(=O)OC6)CC[C@]5(O)C4CC[C@]3(O)C2)OC(C)C1OC(C)=O (some centres not stated) | inactive: -6.4% | 
CN1C[C@H](CNC(=O)OCc2ccccc2)C[C@H]2c3cccc4c3c(cn4C)C[C@@H]21 | inactive: -9.94% | 
C#C[C@]1(O)CC[C@H]2[C@@H]3CCC4=CC(=O)CC[C@]4(C)[C@H]3CC[C@@]21C | inactive: 9.66% and inactive: -5.05% | 
COP(=S)(OC)SCn1nnc2ccccc2c1=O | inactive: -21.5% | 
C[C@H]1CC[C@@H]2[C@@H](C)[C@H]3[C@H](C[C@H]4[C@@H]5CC=C6CC(O[C@@H]7O[C@H](CO)[C@H](O)[C@H](O[C@@H]8O[C@H](CO)[C@@H](O)[C@H](O)[C@H]8O)[C@H]7O[C@H]7O[C@@H](C)[C@H](O)[C@@H](O)[C@H]7O)CC[C@]6(C)[C@H]5CC[C@]34C)N2C1 (some centres not stated) | inactive: -37.6% | 
CC(C)[N+](C)(CCC(C(N)=O)(c1ccccc1)c1ccccc1)C(C)C | inactive: -8.33% and inactive: -1.53% | 

SMILES | activation | Potency
CCCCC[C@@H](O)C1C(=O)OC(C)[C@H](O)/C=C/C=C/C=C/C=C/C=C(\C)C(O)C(O)C(O)C[C@H](O)C[C@H](O)C[C@H](O)C[C@H](O)C[C@@H]1O (some centres not stated) | inactive: -13.9% and inactive: -27.1% | 
COc1ccc2c(c1)C13CCCCC1C(C2)N(C)CC3 (configuration not stated) | inactive: 7.24% | 
CCC(Oc1ccc(Cl)cc1)C(=O)OC1CC2CCC(C1)N2C (configuration not stated) | inactive: -4.67% | 
CC(=O)OC1CC(OC(C)=O)[C@]2(C)C(CC(OC(C)=O)[C@]3(C)C2CC[C@@]2(C)C(c4ccoc4)C(=O)C4O[C@]432)C1(C)C (some centres not stated) | inactive: -19.5% | 
CC[C@H]1C[C@H]2[C@@H]3CCC4=CC(=O)CC[C@@H]4[C@H]3CC[C@]2(C)[C@H]1O | inactive: -5.89% | 
O=C1CC[C@]2(O)C3Cc4ccc(O)c5c4C2(CCN3CC2CC2)C1O5 (some centres not stated) | inactive: -3.02% | 
Oc1cc[c]([Hg][Cl])cc1 | inactive: -12.7% and inactive: -6.42% | 
COC(=O)COc1ccc(Cl)cc1Cl | inactive: -2.38% | 
c1ccc2c(c1)Sc1ccccc1N2CC1CN2CCC1CC2 (configuration not stated) | inactive: -18.9% | 
S=C(NC1CCCCC1)N1CCC(c2cnc[nH]2)CC1 | inactive: 0.593% and inactive: -6.64% | 
C[N+]1(CCC(C(N)=O)(c2ccccc2)c2ccccc2)CCCCC1 | inactive: 1.75% | 
CC(C)CN1CCC2(CC1)CCN(C(=O)Oc1ccccc1)CC2 | inactive: -17.8% | 
O=P1(N(CCCl)CCCl)NC(OO)CCO1 (configuration not stated) | inactive: 7.74% | 
COC(=O)/C=C\C(=O)N[C@@H]1CC[C@@]2(O)[C@H]3Cc4ccc(O)c5c4[C@@]2(CCN3CC2CC2)[C@@H]1O5 | inactive: -3.77% | 
CC[C@H]1[C@@H]2C[C@H]3[C@@H]4N(C)c5ccccc5[C@]45C[C@@H](C2[C@H]5O)N3[C@@H]1O (some centres not stated) | inactive: -1.68% | 
CN1CCC2(CC1)CCN(C(=O)c1ccco1)CC2 | inactive: 1.62% | 
CCCCCCCCCCCCCC(=O)OC1C(C)[C@@]2(O)C(C=C(CO)C[C@]3(O)C(=O)C(C)=C[C@H]23)[C@@H]2C(C)(C)[C@]12OC(C)=O (some centres not stated) | inactive: -58.1% | 
O=C1C(I)=CC(=C(c2cc(I)c(O)c(I)c2)c2ccccc2C(=O)O)C=C1I | inactive: -5.39% and inactive: -0.454% | 
CC(C)(C)NC[C@H](O)c1ccc(O)cc1Cl | inactive: -2.21% | 
COC(C)(C)CCCC(C)C/C=C/C(C)=C/C(=O)OC(C)C (configuration not stated) | inactive: -45.8% and inactive: -17% | 
N#Cc1ccc(CN2CCC3(CC2)CCN(C(=O)Oc2ccccc2)CC3)cc1 | inactive: -11.5% | 
CC(C)[C@H]1C(=O)N2CCC[C@H]2[C@]2(O)O[C@](NC(=O)[C@@H]3C[C@@H]4c5cccc6[nH]cc(c56)C[C@H]4N(C)C3)(C(C)C)C(=O)N12 | inactive: -14% | 
CCOC(=O)c1ccccc1C(=O)OCC | inactive: 5.39% | 
NC(N)=NOCC[C@H](N)C(=O)O | inactive: -12% and inactive: -71.7% | 
O=C(Nc1ccccc1)N1CCC2(CC1)CCN(C(=O)Oc1ccccc1)CC2 | inactive: -16.9% | 
N[C@@H](Cn1oc(=O)[nH]c1=O)C(=O)O | inactive: -11.8% and inactive: 3.16% and inactive: 10.2% | 

SMILES | activation | Potency
CC(Cc1ccc2c(c1)OCO2)NO (configuration not stated) | inactive: -17.6% | 
Clc1cnc(Oc2ccc(Oc3ncc(Cl)cc3Cl)cc2)c(Cl)c1 | inactive: -2.13% and inactive: 4.09% | 
[O]=[Cd] | inactive: -0.16% | 
CCCN(CCC)[C@@H]1CCc2ccc(O)cc2C1 | inactive: -20.6% and inactive: -9.27% | 
COc1c2c(c(CC=C(C)C)c3oc(=O)c(-c4ccc(O)cc4)c(O)c13)OC(C)(C)C=C2 | inactive: -10.5% | 
OC[C@H]1O[C@@H](n2cnc3cc(Cl)c(Cl)cc32)[C@H](O)[C@H]1O | inactive: -2.99% | 
CNCCc1ccc(O)c(O)c1 | inactive: 4.21% and inactive: -18.2% | 
O=C1C=CC(=O)c2c(O)cccc21 | inactive: -19.1% | 
CN(C(=O)Cc1ccc(Cl)c(Cl)c1)[C@H](CN1CCCC1)c1ccccc1 | inactive: -17.2% and inactive: 6.79% | 
CNNC | inactive: -8.09% | 
NCC(=O)c1ccc(Cl)c(Cl)c1 | inactive: -24.1% | 
CCN1C[C@]2(COC(=O)c3ccccc3N3C(=O)C[C@H](C)C3=O)CC[C@H](OC)[C@@]34[C@@H]5C[C@H]6[C@H](OC)[C@H]5[C@](O)(C[C@@H]6OC)[C@@](O)([C@@H](OC)[C@@H]23)[C@@H]14 | inactive: -1.94% | 
CC1OC(=O)C(C(C)C)NC(=O)C(C(C)C)OC(=O)C(C(C)C)NC(=O)C(C)OC(=O)C(C(C)C)NC(=O)C(C(C)C)OC(=O)C(C(C)C)NC(=O)C(C)OC(=O)C(C(C)C)NC(=O)C(C(C)C)OC(=O)C(C(C)C)NC1=O (configuration not stated) | inactive: -16.2% and inactive: -7.35% | 
COC1C(O)C(C)O[C@@H](OC2CC[C@@]3(C)C4CC[C@]5(C)C(C6=CC(=O)OC6)CC[C@@]5(O)C4CC[C@@H]3C2)C1O (some centres not stated) | inactive: -12.2% | 
ClCC1CO1 (configuration not stated) | inactive: -0.588% | 
CCC(C)C(=O)c1c(O)c(C)c2oc3c(C)c(O)c(C(=O)C(C)CC)c(O)c3c2c1O (configuration not stated) | inactive: -24.1% | 
C/C=C1/C[N@@+]2(C)CC[C@]34C(=C(C=O)[C@H]1C[C@H]32)Nc1ccccc14 | inactive: 0.511% | 
CCCC(C)(COC(N)=O)COC(N)=O | inactive: -15.5% | 
CC1=NCCc2c1[nH]c1cc(O)ccc21 |  | active: 100 µM
COC(=O)N1CCC2(CCN(CC(C)C)CC2)CC1 | inactive: -7.07% | 
CN(N=O)c1ccc(O)c(O)c1 | inactive: -14% | 
CCN1C[C@]2(C)CC[C@H](O)[C@@]34C5C[C@@H]6[C@@H](OC)C[C@@](O)(C5[C@H]6O)[C@@H](CC23)[C@@H]14 (some centres not stated) | inactive: -3.45% and inactive: 0.708% | 
CCOP(=S)(OCC)SCSc1ccc(Cl)cc1 | inactive: -18.2% | 
CC[C@H](O)C(C[C@H](C)N(C)C)(c1ccccc1)c1ccccc1 | inactive: -7.14% | 
CCOC(=O)[C@]12Cc3cc(Cl)ccc3[C@H]1N(Cc1ccccc1)C(=O)c1ccccc12 | inactive: 2.28% | 
